Some of the results follow.

In this test the target is T1, MBP-FoxP1dN (Mus musculus, UniProt P58462 326-579).
T1 sequence: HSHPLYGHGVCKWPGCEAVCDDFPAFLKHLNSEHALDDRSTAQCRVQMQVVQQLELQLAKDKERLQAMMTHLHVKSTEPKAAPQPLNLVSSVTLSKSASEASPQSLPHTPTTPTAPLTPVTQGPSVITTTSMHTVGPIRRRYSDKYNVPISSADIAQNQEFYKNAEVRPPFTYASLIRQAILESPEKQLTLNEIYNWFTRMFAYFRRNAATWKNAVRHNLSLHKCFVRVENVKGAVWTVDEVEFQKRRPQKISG
Kind of test: PD-seq (MBP pull-down with sequencing); 20 mM Tris-HCl pH 7.5, 100 mM NaCl, 1.5 mM MgCl2, 0.4 uM protein, 0.1 uM dsDNA library, 30 min, room temperature, amylose pull-down; high values mean tight binding. To be noted: protein: recombinant; tags: His6-MBP; chain copies: 2; dsDNA, one strand shown. The essentials:
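A fragment of mouse FoxP3 or FoxP1 without its N-terminus, carrying a His6-MBP tag and produced in E. coli, was combined at 0.4 µM with a 0.1 µM degenerate double-stranded DNA library filled in with Klenow. The mixture sat for 30 min at room temperature in Tris pH 7.5 buffer containing NaCl and MgCl2. Protein–DNA complexes were captured on amylose resin, washed three times, and the DNA was freed with proteinase K, barcoded by PCR and sequenced on Illumina. Binding is expressed as reads-per-million enrichment of pull-down over input, with replicates pooled.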
For the sequence “GATGATTGTTCTCCCAGCTGATGAATTGAGTTCATCGAGTAAACAAATTTTCCTAATCTTTCTGTTCAAGCGCCATCTAC”, the binding signal was 0.874 RPM ratio (pull-down/input).

For the sequence “GATGATTGTTCTCCCAGCTGATGAATTATTCAGTTCGAGTAAACAAATTTTCCTAATCTTTCTGTTCAAGCGCCATCTAC”, the binding signal was 1.04 RPM ratio (pull-down/input). Turning to “GATGATTGTTCTCCCAGCTGATGAATTCGTCACTTCGAGTAAACAAATTTTCCTAATCTTTCTGTTCAAGCGCCATCTAC”, the binding signal is 0.853 RPM ratio (pull-down/input).

Take “GATGATTGTTCTCCCAGCTGATGAATTCGGCACGTCGAGTAAACAAATTTTCCTAATCTTTCTGTTCAAGCGCCATCTAC”: the binding signal was 0.848 RPM ratio (pull-down/input).

Regarding “GATGATTGTTCTCCCAGCTGATGAATTATATAAATCGAGTAAACAAATTTTCCTAATCTTTCTGTTCAAGCGCCATCTAC”, the binding signal was 1.16 RPM ratio (pull-down/input).

As for “GATGATTGTTCTCCCAGCTGATGAATTGAAACGTTCGAGTAAACAAATTTTCCTAATCTTTCTGTTCAAGCGCCATCTAC”, the binding signal was 0.848 RPM ratio (pull-down/input). In the case of “GATGATTGTTCTCCCAGCTGATGAATTATTACGGTCGAGTAAACAAATTTTCCTAATCTTTCTGTTCAAGCGCCATCTAC”, the binding signal was 0.992 RPM ratio (pull-down/input). Regarding “GATGATTGTTCTCCCAGCTGATGAATTCTAACTGTCGAGTAAACAAATTTTCCTAATCTTTCTGTTCAAGCGCCATCTAC”, the binding signal was 0.866 RPM ratio (pull-down/input). With “GATGATTGTTCTCCCAGCTGATGAATTAAAAGAGTCGAGTAAACAAATTTTCCTAATCTTTCTGTTCAAGCGCCATCTAC”, the binding signal was 0.847 RPM ratio (pull-down/input). Consider “GATGATTGTTCTCCCAGCTGATGAATTCTTTCCATCGAGTAAACAAATTTTCCTAATCTTTCTGTTCAAGCGCCATCTAC”, for which the binding signal is 0.967 RPM ratio (pull-down/input). The figure for “GATGATTGTTCTCCCAGCTGATGAATTCGAAGAGTCGAGTAAACAAATTTTCCTAATCTTTCTGTTCAAGCGCCATCTAC” is 0.729 RPM ratio (pull-down/input); for “GATGATTGTTCTCCCAGCTGATGAATTTTTGAGGTCGAGTAAACAAATTTTCCTAATCTTTCTGTTCAAGCGCCATCTAC” it is 0.794 RPM ratio (pull-down/input).

With “GATGATTGTTCTCCCAGCTGATGAATTGATAAGGTCGAGTAAACAAATTTTCCTAATCTTTCTGTTCAAGCGCCATCTAC”, the binding signal is 0.854 RPM ratio (pull-down/input). Turning to “GATGATTGTTCTCCCAGCTGATGAATTCTGCTGATCGAGTAAACAAATTTTCCTAATCTTTCTGTTCAAGCGCCATCTAC”, the binding signal is 1.02 RPM ratio (pull-down/input). As to “GATGATTGTTCTCCCAGCTGATGAATTCTGGCCTTCGAGTAAACAAATTTTCCTAATCTTTCTGTTCAAGCGCCATCTAC”, the binding signal was 0.876 RPM ratio (pull-down/input). As for “GATGATTGTTCTCCCAGCTGATGAATTGCGCGCATCGAGTAAACAAATTTTCCTAATCTTTCTGTTCAAGCGCCATCTAC”, the binding signal was 1.33 RPM ratio (pull-down/input).

With “GATGATTGTTCTCCCAGCTGATGAATTAGTACGATCGAGTAAACAAATTTTCCTAATCTTTCTGTTCAAGCGCCATCTAC”, the binding signal was 1.01 RPM ratio (pull-down/input). As for “GATGATTGTTCTCCCAGCTGATGAATTGAACTCATCGAGTAAACAAATTTTCCTAATCTTTCTGTTCAAGCGCCATCTAC”, the binding signal was 0.866 RPM ratio (pull-down/input). On to “GATGATTGTTCTCCCAGCTGATGAATTGTAGGGTTCGAGTAAACAAATTTTCCTAATCTTTCTGTTCAAGCGCCATCTAC”, for which the binding signal was 0.95 RPM ratio (pull-down/input).

Turning to “GATGATTGTTCTCCCAGCTGATGAATTGCTTACGTCGAGTAAACAAATTTTCCTAATCTTTCTGTTCAAGCGCCATCTAC”, the binding signal was 1.61 RPM ratio (pull-down/input). With “GATGATTGTTCTCCCAGCTGATGAATTAAACCCGTCGAGTAAACAAATTTTCCTAATCTTTCTGTTCAAGCGCCATCTAC”, the binding signal is 0.921 RPM ratio (pull-down/input). “GATGATTGTTCTCCCAGCTGATGAATTGGAAAGCTCGAGTAAACAAATTTTCCTAATCTTTCTGTTCAAGCGCCATCTAC”: the binding signal is 0.847 RPM ratio (pull-down/input). Regarding “GATGATTGTTCTCCCAGCTGATGAATTCATCGTGTCGAGTAAACAAATTTTCCTAATCTTTCTGTTCAAGCGCCATCTAC”, the binding signal is 0.891 RPM ratio (pull-down/input). As to “GATGATTGTTCTCCCAGCTGATGAATTCCTCAACTCGAGTAAACAAATTTTCCTAATCTTTCTGTTCAAGCGCCATCTAC”, the binding signal was 0.809 RPM ratio (pull-down/input). As to “GATGATTGTTCTCCCAGCTGATGAATTTACGCGTTCGAGTAAACAAATTTTCCTAATCTTTCTGTTCAAGCGCCATCTAC”, the binding signal is 1.28 RPM ratio (pull-down/input). Regarding “GATGATTGTTCTCCCAGCTGATGAATTCTTTATGTCGAGTAAACAAATTTTCCTAATCTTTCTGTTCAAGCGCCATCTAC”, the binding signal was 1.04 RPM ratio (pull-down/input).

For “GATGATTGTTCTCCCAGCTGATGAATTTCATGGCTCGAGTAAACAAATTTTCCTAATCTTTCTGTTCAAGCGCCATCTAC”, the binding signal is 0.799 RPM ratio (pull-down/input). The figure for “GATGATTGTTCTCCCAGCTGATGAATTACGGTAGTCGAGTAAACAAATTTTCCTAATCTTTCTGTTCAAGCGCCATCTAC” is 0.967 RPM ratio (pull-down/input). For “GATGATTGTTCTCCCAGCTGATGAATTCCCTCTATCGAGTAAACAAATTTTCCTAATCTTTCTGTTCAAGCGCCATCTAC”, the binding signal was 0.946 RPM ratio (pull-down/input). Consider “GATGATTGTTCTCCCAGCTGATGAATTGCTACGATCGAGTAAACAAATTTTCCTAATCTTTCTGTTCAAGCGCCATCTAC”, for which the binding signal was 1.01 RPM ratio (pull-down/input).

“GATGATTGTTCTCCCAGCTGATGAATTACATTTCTCGAGTAAACAAATTTTCCTAATCTTTCTGTTCAAGCGCCATCTAC”: the binding signal was 1.13 RPM ratio (pull-down/input).

Source of the values: paper PMC12820563, “FoxP3 forms a head-to-head dimer in vivo and stabilizes its multimerization on adjacent microsatellites”.
